In PubChem BioAssay AID686978 (National Center for Advancing Translational Sciences (NCATS), 2013):
Among all 420,000 compounds or so, about 64,000 (15%) were called active. This list was built around the results that the source calls inconclusive (neither active nor inactive); the mix of calls is not that of the screen. Calls come from the whole dose curve; as a rule, active = well fitted inhibition curve with a large enough effect; inconclusive = small, poorly fitted or top-dose-only effect; inactive = flat fitted curve, though single readings scatter. Potencies of inconclusive entries are left out as doubtful fits.

Assay: qHTS for Inhibitors of human tyrosyl-DNA phosphodiesterase 1 (TDP1): qHTS in cells in absence of CPT; note: nearly all actives have a fitted effect of over 55% in size
Settings: DT40 Tdp1-/- hTDP1 cells, no CPT, ATP luminescence, 48 h; activity change, negative = growth inhibition: at 46.2 µM (top of the series) unless noted
How it was run: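 Growth of hTDP1-complemented DT40 Tdp1-knockout cells is measured by ATP luminescence after at least 48 hr compound exposure at 37 °C, with DMSO substituting for the 20 nM CPT used in the parallel screen.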
% is set by controls: 0 for no effect and ±100 for the full control effect; potency is the fitted concentration of half-maximal effect; tags give direction and shape of the fitted curve.

| SMILES | Potency | activity change, negative = growth inhibition |
| --- | --- | --- |
| CCCN(CC(=O)Nc1ccc(Cl)cc1Cl)C(=O)CC(NC(C)=O)c1ccccc1 (stereo not drawn) | inconclusive [inhibitor, single point] | – |
| CCOc1ccccc1C(=O)Nc1nnc(COC)s1 | inconclusive [inhibitor, single point] | – |
| CC(C)=CCCC(C)N(C=O)C(C)CCC=C(C)C (stereo not drawn) | inconclusive [inhibitor, single point] | – |
| O=C(CCN1C(=O)/C(=C/c2ccc(F)cc2)SC1=S)NC1C=CS(=O)(=O)C1 (stereo not drawn) | active: 13 µM | – |
| COc1cccc(CN(C)CC(=O)Nc2cccc3ccccc23)c1 | – | inactive: -27% |
| COc1cc2ncnc(NCc3ccccc3Cl)c2cc1OC | active: 13 µM | – |
| O=C(O)CSc1ccc2nnc(-c3cccnc3)n2n1 | inactive | – |
| CCc1cc2c(cc3c(=O)n(CC(=O)N4CCN(C)CC4)ncn32)s1 | inconclusive [inhibitor, single point] | – |
| O=C(O)c1ccc(Cl)c(S(=O)(=O)N(Cc2ccccc2)c2ccccc2Cl)c1 | – | inactive: -20.6% |
| CN(C)c1ccc(CN(Cc2ccco2)C(=O)c2ccco2)cc1 | inconclusive [inhibitor, single point] | – |
| CC1CCCN(S(=O)(=O)c2ccc(C(=O)Nc3nnc(-c4ccco4)o3)cc2)C1 (stereo not drawn) | active: 7.31 µM | – |
| O=C(C1CCCCC1)N1C[C@H](n2cc(C3CC3)nn2)[C@@H](O)C[C@@H]1c1ccc(Cl)cc1 | – | inactive: -29.1% |
| COc1cccc(C(CNc2ccc(S(=O)(=O)N3CCN(C)CC3)cc2[N+](=O)[O-])N(C)C)c1 (stereo not drawn) | inconclusive [inhibitor, single point] | – |
| O=C(NCc1ccc2c(c1)CCN2C(=O)c1ccccc1)c1ccc(Br)o1 | inconclusive [inhibitor, single point] | – |
| CC(C)(C)S(=O)N1Cc2cc(C(=O)NCc3ccc(Oc4ccccc4)cc3)nc(-c3cccc(-c4cc5ccccc5o4)c3)c2[C@H]1CCO (stereo partly drawn) | active: 23.1 µM | – |
| CCCC(=O)Oc1ccc2c(C)cc(=O)oc2c1 | inconclusive [inhibitor, single point] | – |
| O=S(=O)(O)c1cccnc1SCc1ccccc1 | – | inactive: -4.2% |
| Cc1ccc(NS(=O)(=O)c2ccc3c(c2)NC(=O)CCS3)cc1F | inconclusive [inhibitor, single point] | – |
| CCCNC(=O)Nc1nc(C(N)c2ccc(OC)cc2)cs1 (stereo not drawn) | – | inactive: -21.9% |
| CC(=O)OCCOc1nc(NC(C)C)nc(NC(C)C)n1 | inconclusive [inhibitor, single point] | – |
| CCCCn1c(N)c(N(CCOC)C(=O)c2oc3ccc(OCC)cc3c2C)c(=O)[nH]c1=O | – | inactive: 6.23% |
| CCN(CC)S(=O)(=O)c1ccc(/C=C/C(=O)OCC#N)cc1 | – | inactive: -7.92% |
| COc1ccc(C(=O)N=c2nc(-c3ccccc3)n(-c3ccccc3)s2)cc1 | inconclusive [inhibitor, partial curve] | – |

| SMILES | Potency | activity change, negative = growth inhibition |
| --- | --- | --- |
| Cc1ccc(C)c(N2CCN(C(=O)Cn3c(C)c4cnn(-c5ccccc5)c(=O)c4c3C)CC2)c1 | active: 2.91 µM | – |
| COc1cc(NC(=O)Cn2c(=O)nc(-c3ccccc3F)c3cc(Cl)ccc32)cc(OC)c1 | active: 10.3 µM | – |
| COc1ccc(C(=O)Nc2nc(CC(=O)NCc3ccc(F)cc3)cs2)cc1 | inconclusive [inhibitor, single point] | – |
| O=C(NC(=O)c1c(Cl)cccc1Cl)Nc1ccc(Oc2cccnc2)nc1 | – | inconclusive: -35.2% [inhibitor] |
| CC1CCCCN1c1nc(-c2ccc(C(C)(C)C)cc2)nc2ccccc12 (stereo not drawn) | inconclusive [inhibitor, partial curve] | – |
| CN(CC(=O)Nc1ccc(F)c(F)c1F)C(=O)CCCSc1nc2ccccc2[nH]1 | inconclusive [inhibitor, single point] | – |
| Cc1ccc(OCC(O)CNC2CCCC2)c(C)c1 (stereo not drawn) | inconclusive [inhibitor, single point] | – |
| CCN(C(=O)Cn1cc(C(=O)c2ccc(F)cc2)c(=O)c2ccc(C)nc21)c1cccc(C)c1 | inconclusive [inhibitor, single point] | – |
| COc1ccc(CN2CCN(Cc3csc(C(C)=O)c3)CC2CCO)c(C)c1C (stereo not drawn) | active: 10.3 µM | – |
| COc1cc(C(=O)NCC(=O)N2CCN(S(=O)(=O)c3cc(C)ccc3C)CC2)cc(OC)c1OC | active: 3.66 µM | – |
| Cn1cccc1-c1cc(C(=O)N/N=C/c2cc(Br)ccc2O)[nH]n1 | active: 4.11 µM | – |
| Cc1ccc(S(=O)(=O)N/N=C/c2ccc(OS(=O)(=O)c3ccc(C)c([N+](=O)[O-])c3)cc2)cc1 | inconclusive [inhibitor, single point] | – |
| CCOc1ccc(C(=O)N2CCC(c3ccncc3)CC2)cc1 | inconclusive [inhibitor, single point] | – |
| Cc1ccc(C(=O)Nc2c(C(=O)NCc3ccco3)cnn2-c2ccccc2)cc1 | inconclusive [inhibitor, single point] | – |
| COc1ccc(CS(=O)c2nc(C)cc(C)c2S(C)(=O)=O)cc1 (stereo not drawn) | – | inactive: -5.73% |
| Cc1ccccc1C(=O)NNC(=O)CSc1nnc(C)n1-c1ccccc1 | – | inactive: -0.266% |
| Cc1cccc(OCCOc2ccccc2C=C(C#N)C#N)c1 | inconclusive [inhibitor, single point] | – |
| CCn1cc(CN2CCCC(C(=O)Nc3cccc(-n4cccn4)c3)C2)cn1 (stereo not drawn) | – | inactive: -25.1% |
| CC(C)[C@H](NC(=O)c1ccco1)C(=O)Nc1ccc(N2CCCCCC2)cc1 | – | inactive: -1.72% |
| O=C(Nc1ccc([N+](=O)[O-])cc1)Nc1ccc(N2CCOCC2)c2nonc12 | active: 23.1 µM | – |
| CCCCCCn1c(CN2CCN(Cc3ccccc3)CC2)nc2c1c(=O)n(C)c(=O)n2C | inconclusive [inhibitor, single point] | – |
| CCOC(=O)c1ccc(N2C(=O)C3C(/C=C/c4ccccc4)OC4(C(=O)c5ccccc5C4=O)C3C2=O)cc1 (stereo not drawn) | inconclusive [inhibitor, single point] | – |
| CC1(C(=O)Nc2ccc3nc[nH]c3c2)CCN1C(=O)CCc1ccccc1 (stereo not drawn) | inconclusive [inhibitor, single point] | – |

| SMILES | Potency | activity change, negative = growth inhibition |
| --- | --- | --- |
| CCCCOc1ccc(CNC(=O)c2cnc3sc(N4CCC(C)CC4)nn3c2=O)cc1 | inconclusive [inhibitor, single point] | – |
| CC(=O)Nc1ccccc1OCC(=O)NCCc1ccc(Cl)cc1Cl | inconclusive [inhibitor, single point] | – |
| COc1cc(C(C)=O)ccc1OCC(O)Cn1nc(C)c(Br)c1C (stereo not drawn) | inconclusive [inhibitor, single point] | – |
| COc1ccc(N2CCN(CCNC(=O)C3CCN(S(=O)(=O)c4cccs4)CC3)CC2)cc1 | inconclusive [inhibitor, partial curve] | – |
| CCOC(=O)C1=C(CC)OC(N)=C(C#N)C1c1ccc(OC)c(OC)c1OC (stereo not drawn) | – | inactive: -22.6% |
| COc1cccc(-n2c(-c3ccc(C)cc3)cc3c2CC(C)(C)CC3=O)c1 | inconclusive [inhibitor, single point] | – |
| COc1ccc(CCN(C)Cc2nc(Cc3ccc(OC)c(OC)c3)no2)cc1OC | inconclusive [inhibitor, partial curve, poor fit] | – |
| C[C@]12c3[nH]c4cc(-c5ccco5)ccc4c3CCN1C(=O)[C@@H](CC(=O)NCCc1ccccn1)C[C@@H]2C(=O)N1CCCCC1 | inconclusive [inhibitor, single point] | – |
| CC(C)c1nc2ccc(C(=O)NCCCN3CCN(c4ccc(F)cc4)CC3)cc2o1 | inconclusive [inhibitor, partial curve, poor fit] | – |
| CCOCCCn1c(=S)[nH]c2cc(C(=O)N3CCC(C(N)=O)(N4CCCCC4)CC3)ccc2c1=O | inconclusive [inhibitor, partial curve] | – |
| Cn1c(=O)c2c(SCC(=O)N3CCCc4ccccc43)nc(C3CC3)nc2n(C)c1=O | inconclusive [inhibitor, partial curve] | – |
| COC(=O)c1cc(S(=O)(=O)N2CCN(c3cc(C)ccc3C)CC2)c[nH]1 | inconclusive [inhibitor, single point] | – |
| O=C(O)[C@@H]1CCCN1S(=O)(=O)c1cccc2cccnc12 | – | inactive: -0.3% |
| CC(C)c1ccc2occ(CC(=O)Nc3cccc(C(F)(F)F)c3)c2c1 | active: 29.1 µM | – |
| O=C(CN(C(=O)c1csnn1)c1ccc2c(c1)OCCO2)NCc1ccccc1 | – | inactive: -3.96% |
| CCCCN1C(=O)C(CC(=O)NCC2CCCCC2)CC(C(=O)N(CC)CC)=C1C (stereo not drawn) | inconclusive [inhibitor, partial curve, poor fit] | – |
| CC(=O)c1cn(Cc2ccccc2)c(=O)[nH]c1=O | – | inactive: 12.3% |
| COc1cc(/C=N/NC(=O)Cc2ccccc2)ccc1Oc1ccc([N+](=O)[O-])cc1[N+](=O)[O-] | inconclusive [inhibitor, single point] | – |
| COc1ccccc1C1CN(CCNC(=O)C2=CCCC2)Cc2ccccc2O1 (stereo not drawn) | inconclusive [inhibitor, single point] | – |
| NCCCC[C@H]1CNC(=S)N1CC1CCCCC1 | inconclusive [inhibitor, partial curve] | – |
| C[C@H]1CN([C@@H](C)CO)C(=O)c2cccc(NS(=O)(=O)c3ccc(Cl)cc3)c2O[C@@H]1CN(C)CC1CCCCC1 | inconclusive [inhibitor, single point] | – |
| CN1CCCC(CN(C)C(=O)c2cnn(-c3nccc(-c4ccccc4C(F)(F)F)n3)c2C2CC2)C1 (stereo not drawn) | – | inactive: -26.2% |
